Measured values: paper PMC5350466 (mBio, 2017)

Test system: P. aeruginosa PAO1
Conditions: in vivo
Method: Larval infection assays were performed as previously described ([53]), with modifications. Overnight cultures were diluted in PBS, pH 7.4, with or without B. cenocepacia BCNs at a 1.5 µM final concentration to the following OD600s: B. cenocepacia and P. aeruginosa PAO1, 0.00004; K. pneumoniae Kpn18, 0.04; A. baumannii AB1, 0.4; S. aureus USA300, 0.004. The larvae were injected with 10 µl of the bacterial suspensions or sterile PBS (10 larvae/group in each experiment) with 10-µl MICROLITER syringes (Hamilton). The larvae were incubated at 30°C, and their viability was checked at regular time intervals. In similar assays, five larvae/group were sacrificed at 200 min postinfection and the hemolymph was extracted as previously described ([53]). The hemolymph was immediately serially diluted in PBS and plated on LB agar supplemented with 0.3% cetrimide or 200 µg/ml ampicillin–25 µg/ml PmB to quantify the CFU of P. aeruginosa PAO1 or B. cenocepacia, respectively, recovered from the infected larvae.

Cc1c(C)c2c(c(C)c1O)CC[C@@](C)(CCC[C@H](C)CCC[C@H](C)CCCC(C)C)O2 [Vit E, α-tocopherol]
effect on survival advantage of P. aeruginosa in BcnA-treated larvae: significantly reduced the survival advantage of P. aeruginosa

menaquinone [Vit K2]
effect on survival advantage of P. aeruginosa in BcnA-treated larvae: significantly reduced the survival advantage of P. aeruginosa
